Experimental data from PubChem BioAssay AID894 (National Center for Advancing Translational Sciences (NCATS), 2007).
“And” between values parts separate entries of the source, which are not always exact repeats. Identical values can stand only once. Among all 150,000 compounds or so, about 6,500 (4.3%) were called active. Inconclusive means that the source gave no clear call. Such entries were picked first, then a sample of the others. Calls follow the shape of the dose curve; as a rule, active = well fitted inhibition curve with a large enough effect (not every such curve was filed as active); inconclusive = small, poorly fitted or top-dose-only effect, or another doubt; inactive = no such curve, though single readings can be large or run the other way. Potencies beside an inconclusive call are fits to weak or partial responses and may not hold up.

These compounds were tested against 15-hydroxyprostaglandin dehydrogenase [NAD(+)] (Homo sapiens) (UniProt P15428) (assay: qHTS Assay for Inhibitors of HPGD (15-Hydroxyprostaglandin Dehydrogenase)). Settings: purified HPGD, NADH fluorescence kinetic, PGE2 substrate; activity change, negative = inhibition: stronger effect = lower value.
Procedure, shortened: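 NADH formation kinetics: reaction with 30 uM PGE2 and 1 mM NAD+ (final), 20 nM enzyme, Tris-HCl pH 8 with Tween 20, after 15 min compound preincubation at room temperature. Fluorescence change, last versus first of five reads.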
% is scaled to controls: 0 for no effect and ±100 for the full control effect; potency is read from the fitted curve at half-maximal effect; tags tell the direction and shape of the fitted curve.

UniProt P15428, sequence (P15428 whole entry, looked up): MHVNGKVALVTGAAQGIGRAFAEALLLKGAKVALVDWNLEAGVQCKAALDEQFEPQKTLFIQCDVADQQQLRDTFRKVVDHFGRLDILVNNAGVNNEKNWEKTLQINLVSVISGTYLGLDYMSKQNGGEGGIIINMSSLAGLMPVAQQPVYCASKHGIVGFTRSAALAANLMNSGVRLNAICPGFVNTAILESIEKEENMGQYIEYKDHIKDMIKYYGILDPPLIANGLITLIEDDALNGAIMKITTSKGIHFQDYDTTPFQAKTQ

Row | SMILES | Potency | activity change, negative = inhibition
1 | CCCCCCCCCCSc1n[nH]c(N)n1 | inconclusive: 39.8 µM [inhibitor, partial curve, poor fit] | –
2 | c1ccc(-c2cnc(-c3ccc(-c4ncc(-c5ccccc5)o4)cc3)o2)cc1 | – | inactive: -12%
3 | O=c1cc(-c2cccc(F)c2)[nH]c2ccccc12 | inconclusive: 2.82 µM [inhibitor, full curve, poor fit] and inconclusive: 35.5 µM [inhibitor, partial curve] | –
4 | CC(C)NS(=O)(=O)c1ccc(NC(=O)C(C)Oc2ccc(C(=O)c3ccccc3)cc2)cc1 (stereo not given) | inconclusive: 28.2 µM [inhibitor, single point] | –
5 | Cc1oc(C(C)(C)C)cc1C(=O)Nc1ccc2c(c1)OCCO2 | – | inactive: -11.4%
6 | COc1ccc(Oc2ncc3nc(-c4cc(F)cc(F)c4)c(=O)n(C)c3n2)cc1 | inconclusive: 35.5 µM [inhibitor, partial curve] | –
7 | CC(=O)N=c1sc2nc3ccccc3nc2n1N(C(C)=O)C(C)=O | inconclusive: 31.6 µM [inhibitor, partial curve] | –
8 | O=C(Nc1ccccc1)N(O)c1ccc(Cl)cc1 | – | inactive: -27.6%
9 | CCOc1ccc(OCC)c(Nc2cc(C)nc3nc(C)nn23)c1 | active: 0.501 µM | –
10 | COc1cccc(OC)c1OCC(C)CNCC1CCCO1 (stereo not given) | – | inactive: -12.4%
11 | COc1cc(OC)c(-c2nn3c(C4CCCCC4)nnc3s2)cc1OC | inconclusive: 22.4 µM [inhibitor, partial curve] | –
12 | Cc1cc(=O)[nH]c(N=N/C(=N/Nc2ccccc2C)c2ccccc2)n1 | – | inactive: -19.5%
13 | COC(=O)c1ccccc1NC(=O)c1sc(=S)n(C)c1N | active: 22.4 µM | –
14 | COc1cccc(/C=N/Nc2ncnc(Cl)c2N)c1O | – | inactive: -10.2%
15 | Nc1ccc(Oc2ccc([N+](=O)[O-])cc2[N+](=O)[O-])cc1 | – | inactive: -15.5%
16 | COc1ccc(S(=O)(=O)n2c(CCN3CCOCC3)nc3ccccc32)cc1 | – | inactive: -12.7%
17 | O=c1[nH][nH]c(=S)c(=O)[nH]1 | active: 3.98 µM | –
18 | O=C(CCc1ccccc1)Nc1ccc(NC(=O)c2ccco2)nc1 | – | inactive: -14.3%
19 | N#Cc1cc2c(nc1SCc1nc3ccccc3[nH]1)CCC2 | inconclusive: 28.2 µM [inhibitor, partial curve] | –
20 | CCSc1nc(-c2cccnc2)ccc1C#N | inconclusive: 28.2 µM [inhibitor, partial curve] | –
21 | COC(=O)C(Oc1ccc2c(-c3ccc(OC)cc3)cc(=O)oc2c1)c1ccccc1 (stereo not given) | inconclusive: 20 µM [inhibitor, partial curve, poor fit] | –
22 | COC(=O)c1ccccc1NC(=O)/C=C/c1cc(OC)c(OC)c(OC)c1 | inconclusive: 31.6 µM [inhibitor, partial curve] | –
23 | Cc1cccc(OCC(=O)NC(C)C(=O)N/N=C/c2c(OCc3ccccc3)ccc3ccccc23)c1 (stereo not given) | inconclusive: 39.8 µM [inhibitor, partial curve, poor fit] | –
24 | CCOC(=O)CSc1ncnc2c1cnn2-c1ccc(C)cc1 | inconclusive: 28.2 µM [inhibitor, partial curve] | –

Row | SMILES | Potency | activity change, negative = inhibition
25 | COc1c(C)cccc1C(=O)Nc1cc(Cl)ccc1N1CCOCC1 | inconclusive: 35.5 µM [inhibitor, partial curve] | –
26 | Cc1ccccc1Nc1ccc(S(=O)(=O)N2CCOCC2)cc1[N+](=O)[O-] | inconclusive: 31.6 µM [inhibitor, partial curve] | –
27 | Cc1ccc2cc3cc(C(=O)NCCCN4CCc5ccccc5C4)oc3nc2c1 | inconclusive: 7.08 µM [inhibitor, full curve] | –
28 | CC(=O)C(Sc1ccc2nnc(-c3ccc(F)cc3)n2n1)C(C)=O | inconclusive: 35.5 µM [inhibitor, single point] | –
29 | CCOc1ccc(/C(O)=C2/C(=O)C(=O)N(CC3CCCO3)C2c2cccs2)cc1 (stereo not given) | – | inactive: -4%
30 | COC(=O)c1nnc(-c2ccccc2)c(-c2ccccc2)n1 | – | inactive: -19.7%
31 | COC(=O)c1c(NC(=O)CN2CCN(C(=O)c3ccco3)CC2)c2cc(C)ccc2n1C | inconclusive: 3.55 µM [inhibitor, single point] | –
32 | CNC(=O)c1ccc(-c2sc3nc(N4CCOCC4)c4c(c3c2N)CC(C)(C)OC4)o1 | inconclusive: 15.8 µM [inhibitor, partial curve] | –
33 | CCCCCCc1nc2ccccc2c(=O)n1NC(=O)c1c(O)c2c(n(CC(C)C)c1=O)CCCC2 | inconclusive: 22.4 µM [inhibitor, partial curve] | –
34 | O=C(CSc1nc2ccccc2s1)NNC(=S)Nc1ccccc1 | inconclusive: 12.6 µM [inhibitor, partial curve] | –
35 | c1ccc(-c2cc(-c3nnc4n3N=C(c3ccc5ccccc5c3)CS4)[nH]n2)cc1 | – | inactive: -12.9%
36 | Cc1cc(C)c(C#N)c(N2CCN(CCOc3ccc(Cl)cc3)CC2)n1 | inconclusive: 31.6 µM [inhibitor, partial curve] | –
37 | Nc1ccc(C(=O)N/N=C2\CCCc3c2[nH]c2ccccc32)cc1 | inconclusive: 22.4 µM [inhibitor, partial curve, poor fit] | –
38 | N#CC(CC(=O)O)=C(c1ccccc1)c1ccccc1 | – | inactive: -25%
39 | Brc1ccc(-c2csc(N3CCC(c4ccccc4)C3)n2)cc1 (stereo not given) | inconclusive: 0.0251 µM [inhibitor, full curve, poor fit] | –
40 | COc1ccc(OC)c(-c2cc(C(=O)Nc3cccc(Cl)c3)no2)c1 | inconclusive: 35.5 µM [inhibitor, partial curve] | –
41 | O=C(N/N=C/c1ccccc1)c1[nH]c2ccc(Br)cc2c1-c1ccccc1 | – | inactive: -21.6%
42 | Cc1ccc(S(=O)(=O)N(CC(=O)N2CCC(C(N)=O)CC2)c2cccc(C(F)(F)F)c2)cc1 | – | inactive: -12.1%
43 | CCOc1c2ccc(C(=O)NCc3ccc(C)cc3)cc2nn1CCOC | inconclusive: 3.98 µM [inhibitor, partial curve] | –
44 | Cc1nn(-c2ccccc2)c(Cl)c1/C=C1/C(=N)N2N=C(C(C)C)SC2=NC1=O | active: 22.4 µM | –
45 | CC(C)Sc1nnc(NC(=O)C2CC2)s1 | – | inactive: -25.5%
46 | COc1ccc(/C=N/OCc2nc3c4c(ncn3n2)Oc2ccc3ccccc3c2C4c2ccccc2)cc1 (stereo not given) | inconclusive: 17.8 µM [inhibitor, partial curve] | –
47 | Cc1ccccc1Cn1cc(NC(=O)c2cc3nc(-c4ccco4)cc(C(F)(F)F)n3n2)cn1 | inconclusive: 28.2 µM [inhibitor, partial curve] | –
48 | CC1CC(C)CN(c2oc(-c3ccccc3Cl)nc2C#N)C1 (stereo not given) | inconclusive: 31.6 µM [inhibitor, partial curve] | –

Row | SMILES | Potency | activity change, negative = inhibition
49 | O=C(Nc1ccccc1)c1ccccc1N=Cc1ccccc1O | inconclusive: 25.1 µM [inhibitor, partial curve] | –
50 | Cc1cc(C)c2nc(N3CCN(C)CC3)c(C#N)cc2c1 | inconclusive: 31.6 µM [inhibitor, partial curve] | –
51 | CN(Cc1cccs1)S(=O)(=O)c1cccs1 | active: 28.2 µM | –
52 | O=C(/C=C/c1ccc(Br)cc1)NC1CCCCCC1 | – | inactive: -13.2%
53 | C=C(Cl)COc1cc(C)cc2oc(=O)cc(CC)c12 | inconclusive: 17.8 µM [inhibitor, partial curve] | –
54 | Cc1ccsc1C(=O)OCC(=O)NCCC1=CCCCC1 | inconclusive: 17.8 µM [inhibitor, partial curve, poor fit] | –
55 | COC(=O)CC1C(C)(C)C(=O)C2CC3=C(CC[C@]4(C)C3=CC(=O)OC4c3ccoc3)[C@@]1(C)C2=O (stereo not given in full) | – | inactive: -10.5%
56 | COc1ccc(C(=O)COC(=O)c2ccc(NC(=O)c3ccccc3)cc2)cc1 | inconclusive: 3.98 µM [inhibitor, single point] | –
57 | COc1c(C)oc2cc(O)ccc2c1=O | inconclusive: 28.2 µM [inhibitor, partial curve] | –
58 | C=CCNC(=O)c1ccc(Cl)cc1Cl | active: 14.1 µM | –
59 | O=C1CSC2(C(=O)N3CCCc4cccc2c43)N1c1cccc(C(F)(F)F)c1 (stereo not given) | – | inactive: -3.91%
60 | CCC(c1n[nH]c(=S)n1-c1ccccc1)N(C)C (stereo not given) | inconclusive: 35.5 µM [inhibitor, single point] | –
61 | COc1cc(/C=N/NC(=O)c2cncc(Br)c2)ccc1OC(=O)c1ccc2c(c1)OCO2 | inconclusive: 17.8 µM [inhibitor, partial curve] | –
62 | CCNC(=O)c1ccc(CSc2ccc(Cl)cc2)cc1 | – | inactive: -23.8%
63 | Cc1ccc(SC(=O)COc2ccc(C)c(C)c2)cc1 | inconclusive: 14.1 µM [inhibitor, partial curve] | –
64 | CCOC(=O)c1c(-c2cccc(C)c2)csc1NC(=O)C1CC=CCC1C(=O)O (stereo not given) | inconclusive: 28.2 µM [inhibitor, partial curve] | –
65 | CCOC(=O)c1ccc(Oc2nc(OC)nc(N(C)C)n2)cc1 | – | inactive: -14.9%
66 | Cn1ncc([N+](=O)[O-])c1C(=O)Nc1ccc2c(c1)OCCO2 | – | inactive: -9.9%
67 | Cc1cccc(-c2nnc3n2N=C(c2ccccc2Br)CS3)c1 | active: 2.51 µM | –
68 | O=C(O)C1CCC(=O)N1Cc1ccc(F)cc1 (stereo not given) | – | inactive: -4.92%
69 | COc1c(C)c2c(c(O)c1CC=C(C)CCC(=O)OCCN1CCOCC1)C(=O)OC2 | inconclusive: 22.4 µM [inhibitor, partial curve] | –
70 | CCc1ccc(-c2cc(C(F)(F)F)n3nc(C(=O)Nc4c(C)nn(Cc5ccc(F)cc5)c4C)cc3n2)s1 | inconclusive: 25.1 µM [inhibitor, partial curve] | –
